{"source": "PubChem BioAssay AID2147", "about": "(National Center for Advancing Translational Sciences (NCATS), 2009)", "note": "Out of some 230,000 compounds screened, about 3,600 (1.6%) were called active. Inconclusive results, whose numbers are uncertain, are shown with a selection of clear calls. Calls follow the shape of the dose curve; as a rule, active = well fitted inhibition curve with a large enough effect (not every such curve was filed as active); inconclusive = small, poorly fitted or top-dose-only effect, or another doubt; inactive = no such curve, though single readings can be large or run the other way. Potencies of inconclusive entries are doubtful fits and often do not repeat. Also: nearly all actives have a fitted effect of over 50% in size. Potency is read from the fitted curve at half-maximal effect; tags tell the direction and shape of the fitted curve."}
{"molecular_target": "Lysine-specific demethylase 4E (Homo sapiens) (UniProt B2RXH2)", "sequence (B2RXH2 whole entry, looked up, the tested form may be a part)": "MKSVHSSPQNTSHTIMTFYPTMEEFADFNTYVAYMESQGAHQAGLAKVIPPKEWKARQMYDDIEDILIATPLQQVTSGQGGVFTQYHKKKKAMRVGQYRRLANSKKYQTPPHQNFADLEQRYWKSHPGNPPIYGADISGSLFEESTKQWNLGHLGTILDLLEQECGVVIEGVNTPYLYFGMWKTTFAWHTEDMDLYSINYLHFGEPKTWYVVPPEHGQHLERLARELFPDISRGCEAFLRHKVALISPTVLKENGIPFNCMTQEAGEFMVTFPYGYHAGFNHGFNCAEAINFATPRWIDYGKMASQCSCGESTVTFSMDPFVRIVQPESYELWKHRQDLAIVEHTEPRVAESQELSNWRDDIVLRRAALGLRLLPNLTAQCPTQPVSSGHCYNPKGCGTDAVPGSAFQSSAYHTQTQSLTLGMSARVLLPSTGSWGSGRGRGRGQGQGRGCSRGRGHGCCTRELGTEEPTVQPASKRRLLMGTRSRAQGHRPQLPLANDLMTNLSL", "assay": "qHTS Assay for Inhibitors of Human Jumonji Domain Containing 2E (JMJD2E)", "details": "JMJD2E catalytic domain, FDH-coupled NADH fluorescence (FDH is formaldehyde dehydrogenase); series mostly up to 57.1 µM"}
{"smiles": "CC(C)OC(=O)c1c(NS(=O)(=O)c2ccccc2)sc2c1CCCC2", "Potency": "inactive"}
{"smiles": "O=c1oc2c(CN3CCCCC3)c(O)ccc2cc1-c1nc2ccccc2[nH]1", "Potency": "inconclusive: 10 µM [inhibitor, partial curve]"}
{"smiles": "C=CCOC(=O)N[C@H](c1ccccc1)C(C(C)=O)C(C)=O", "Potency": "inactive"}
{"smiles": "CCOc1ccc(NC(=O)Nc2ccc3nsnc3c2)cc1", "Potency": "inactive"}
{"smiles": "c1ccc(OCCn2c(-c3ccco3)nc3ccccc32)cc1", "Potency": "inconclusive: 28.2 µM [inhibitor, partial curve]"}
{"smiles": "CC1=C(C(N)=O)C(c2cccnc2)n2nc(SCc3ccccc3Cl)nc2N1", "note": "(stereo unspecified)", "Potency": "inconclusive: 31.6 µM [inhibitor, partial curve]"}
{"smiles": "CCCCn1nnnc1SCC(=O)Nc1ccc(N(C)C)cc1", "Potency": "inactive"}
{"smiles": "CC(C)N1C(=O)CCC1C(=O)N1CCN(c2ccccn2)CC1", "note": "(stereo unspecified)", "Potency": "inconclusive: 28.2 µM [inhibitor, single point]"}
{"smiles": "CCOC(=O)c1nnn(-c2nonc2N)c1CN(C)C1CCCCC1", "Potency": "inactive"}
{"smiles": "Cn1c(OCc2ccco2)nc2c1c(=O)n(Cc1ccc(Cl)c(Cl)c1)c(=O)n2C", "Potency": "inactive"}
{"smiles": "O=C(O)c1ccccc1CSc1nc2ccccc2n1Cc1ccccc1C(=O)O", "Potency": "inconclusive: 28.2 µM [inhibitor, partial curve, poor fit]"}
{"smiles": "COc1ccc(-c2ocnc2C(=O)Nc2ccccc2N2CCCCC2)cc1", "Potency": "inconclusive: 28.2 µM [inhibitor, partial curve]"}
{"smiles": "CCOC(=O)N1CCC(NC(=O)c2ccc(CS(=O)(=O)c3ccc(OC)cc3)o2)CC1", "Potency": "inactive"}
{"smiles": "O=C(NCCc1ccccc1)c1ccco1", "Potency": "inactive"}
{"smiles": "CCn1c(-c2csc3c2CCCC3)n[nH]c1=S", "Potency": "inactive"}
{"smiles": "CC(=O)C1=C(O)C(=O)N(CC(=O)O)C1c1ccccc1Cl", "note": "(stereo unspecified)", "Potency": "inconclusive: 39.8 µM [inhibitor, single point]"}
{"smiles": "Cc1cc(C)c2c(N)c(C(=O)NN3CC(=O)N(c4cccc(Cl)c4)CC3=O)sc2n1", "Potency": "inconclusive: 20 µM [inhibitor, partial curve]"}
{"smiles": "O=C(Nc1cnn(Cc2ccc(Cl)cc2)c1)c1cccs1", "Potency": "inconclusive: 35.5 µM [inhibitor, single point]"}
{"smiles": "CC(=O)Nc1ccc(S(=O)(=O)N2C(=O)c3cccc4cccc2c34)cc1", "Potency": "inconclusive: 35.5 µM [inhibitor, single point]"}
{"smiles": "CC(C)c1ccc(-c2nc3c([nH]2)c(=O)n(C)c(=O)n3C)cc1", "Potency": "inconclusive: 2.51 µM [inhibitor, full curve]"}
{"smiles": "Cc1nnc(SCc2cc(=O)oc3ccc4ccccc4c23)n1Cc1ccccc1", "Potency": "inconclusive: 35.5 µM [inhibitor, single point]"}
{"smiles": "CCOC(=O)c1cc2c(n(-c3ccccc3)c1=O)CC(C)(C)CC2=O", "Potency": "inconclusive: 31.6 µM [inhibitor, partial curve]"}
{"smiles": "CCN1CCN(C(=O)CSc2cc(=O)n(C)c3ccccc23)CC1", "Potency": "inconclusive: 28.2 µM [inhibitor, single point]"}
{"smiles": "COc1cc2c(cc1OC)C(c1ccccc1O)N(C1CC(=O)N(c3ccccc3)C1=O)CC2", "note": "(stereo unspecified)", "Potency": "inactive"}
{"smiles": "CCn1cc(C(=O)NCc2cccnc2)c2cc(OC)c(OC)cc2c1=O", "Potency": "inconclusive: 25.1 µM [inhibitor, single point]"}
{"smiles": "C=CCc1cc(Cl)ccc1OCCNCCCOC", "Potency": "inconclusive: 35.5 µM [inhibitor, single point]"}
{"smiles": "CCOC(=O)c1cc(-c2ccco2)nn1-c1ccc(C)cc1", "Potency": "inactive"}
{"smiles": "O=C(c1cc2c([nH]c1=O)CCCC2)N1CCc2c([nH]c3ccccc23)C1c1ccccc1F", "note": "(stereo unspecified)", "Potency": "inconclusive: 39.8 µM [inhibitor, single point]"}
{"smiles": "Cc1cnn(CCC(=O)NNC(=S)Nc2ccc(F)cc2)c1", "Potency": "inactive"}
{"smiles": "CCCN(CCC)C(=O)[C@@H](CCC(=O)O)NC(=O)c1ccccc1", "Potency": "inactive"}
{"smiles": "C[n+]1c2n(c3ccccc31)N=C(c1ccc(Br)cc1)CS2", "Potency": "inactive"}
{"smiles": "COc1ccc(-c2nn(-c3ccccc3)cc2C(=O)Nc2nc(CC(C)=O)ns2)cc1", "Potency": "inconclusive: 25.1 µM [inhibitor, partial curve]"}
{"smiles": "COc1ccc(NC(=O)c2nnn(Cc3ccc(SC)cc3)c2N)c(OC)c1", "Potency": "inconclusive: 25.1 µM [inhibitor, partial curve]"}
{"smiles": "Cc1nn(-c2ccccc2)c(N2CCCC2)c1/C=N/NC(=S)Nc1ccccc1C(F)(F)F", "Potency": "inconclusive: 31.6 µM [inhibitor, single point]"}
{"smiles": "COc1ccc(C)cc1NC(=O)CN1CCN(S(=O)(=O)c2ccc(C(C)C)cc2)CC1", "Potency": "inconclusive: 39.8 µM [inhibitor, single point]"}
{"smiles": "Cc1ccc(C(=O)N/C(=C/c2cn(-c3ccccc3)nc2-c2ccccc2)C(=O)O)cc1", "Potency": "inactive"}
{"smiles": "CC(C)Nc1nc(NC(C)C)nc(C(=O)OCCO)n1", "Potency": "inactive"}
{"smiles": "CCS(=O)(=O)C1=NN2C(=N)/C(=C\\c3ccc(SCc4ccco4)o3)C(=O)N=C2S1", "Potency": "inconclusive: 39.8 µM [inhibitor, single point]"}
{"smiles": "COc1cc(COc2ccc3c(C)c(Cc4ccccc4)c(=O)oc3c2C)cc(OC)c1OC", "Potency": "inconclusive: 22.4 µM [inhibitor, partial curve]"}
{"smiles": "CCC(C)NCCCOc1ccc(C)cc1OC", "note": "(stereo unspecified)", "Potency": "inconclusive: 31.6 µM [inhibitor, single point]"}
{"smiles": "COc1ccc(CN2CCC(N(CCc3ccccc3)Cc3ccccc3)CC2)c(OC)c1", "Potency": "active: 28.2 µM"}
{"smiles": "CC(C)C(O)P(=O)(OCc1ccccc1)c1ccc(N(C)C)cc1", "note": "(stereo unspecified)", "Potency": "inconclusive: 28.2 µM [inhibitor, single point]"}
{"smiles": "Cc1ccc(NN=C2c3ccccc3-c3ccccc32)cc1", "Potency": "inactive"}
{"smiles": "FC(F)(F)c1ccc(N2CCOCC2)c(Nc2nc3ccccc3n3cnnc23)c1", "Potency": "inconclusive: 25.1 µM [inhibitor, single point]"}
{"smiles": "COc1cc(NC(=O)c2ccc3c(c2)OCCO3)ccc1NC(=O)c1ccco1", "Potency": "inconclusive: 35.5 µM [inhibitor, single point]"}
{"smiles": "Cc1ccc(-n2c(=O)c(C#N)cc3c(=O)n4ccccc4nc32)cc1C", "Potency": "inconclusive: 3.55 µM [inhibitor, partial curve]"}
{"smiles": "CC(=O)Nc1cccc(-c2nnc3c4ccccc4c(C)nn23)c1", "Potency": "inconclusive: 39.8 µM [inhibitor, single point]"}
{"smiles": "O=C1/C(=C/c2ccncc2)N=C2CCCCCN12", "Potency": "inconclusive: 25.1 µM [inhibitor, partial curve]"}
{"smiles": "Cc1ccc(CNC(=O)CN2CCCC(C)C2)cc1", "note": "(stereo unspecified)", "Potency": "inactive"}
{"smiles": "Cc1ccc(NC(=S)NCCC2=CCCCC2)cc1", "Potency": "inactive"}
{"smiles": "COCCOC(=O)c1[nH]c2c(c1C)C(=O)C(C(=O)OC)C(C)C2", "note": "(stereo unspecified)", "Potency": "inconclusive: 31.6 µM [inhibitor, single point]"}
{"smiles": "O=C(CSc1nc2sc3c(c2c(=O)n1-c1ccccc1)CCCC3)NCc1ccco1", "Potency": "inconclusive: 28.2 µM [inhibitor, partial curve]"}
{"smiles": "CCCCCn1c(N)c(C#N)c2nc3ccccc3nc21", "Potency": "inconclusive: 25.1 µM [inhibitor, partial curve]"}
{"smiles": "O=C(COC(=O)c1ccncc1)NCCCc1ccccc1", "Potency": "inconclusive: 39.8 µM [inhibitor, single point]"}
{"smiles": "Cc1ccc(-n2cccn2)c([C@@H]2C[C@H]3CN(C)C(=O)[C@]34CCCN24)c1", "Potency": "inactive"}
{"smiles": "C=CCn1c(=O)c2ccccc2n2nnc(C(=O)OCC)c12", "Potency": "inconclusive: 39.8 µM [inhibitor, single point]"}
{"smiles": "CN(C)/C=C1\\N=C(c2ccccc2)OC1=O", "Potency": "inactive"}
{"smiles": "Cc1cc(C(=O)N/N=C/c2ccc(N3CCOCC3)cc2)c(C)o1", "Potency": "inconclusive: 22.4 µM [inhibitor, partial curve]"}
{"smiles": "Cc1[nH]c(=O)[nH]c(=O)c1/C=N/NC(=O)[C@H](CC(C)C)NC(=O)OC(C)(C)C", "Potency": "inactive"}
{"smiles": "Cc1ccc(-n2nnc(-c3cc4ccccc4n3C)n2)cc1", "Potency": "inconclusive: 12.6 µM [inhibitor, partial curve]"}
{"smiles": "CCNc1ccc(Br)cc(C(=O)/C=C/c2c(Cl)cccc2Cl)c1=O", "Potency": "inconclusive: 31.6 µM [inhibitor, single point]"}
{"smiles": "CCOC(=O)C(=O)Nc1ccccc1C(=O)Nc1ccc(OC)cc1", "Potency": "inconclusive: 31.6 µM [inhibitor, single point]"}
{"smiles": "CC(C)Oc1ccc(CCC(=O)NNC(=O)CCC(=O)O)cc1", "Potency": "inconclusive: 39.8 µM [inhibitor, single point]"}
{"smiles": "Cc1cc(NC(=O)Nc2ccc(N(C)C)cc2)c2cc(F)cc(F)c2n1", "Potency": "inconclusive: 28.2 µM [inhibitor, partial curve]"}
{"smiles": "COc1ccc(Cn2c(-c3ccco3)nc3c(c(=O)c4ccccc4n3C)c2=O)cc1", "Potency": "inconclusive: 39.8 µM [inhibitor, single point]"}
{"smiles": "Cc1cc(C)c2cc(CN(CCN3CCCC3)C(=O)Nc3ccc(F)cc3)c(=O)[nH]c2c1", "Potency": "inconclusive: 3.55 µM [inhibitor, single point]"}
{"smiles": "CN1CCN(c2ccccc2NC(=O)c2ccc(-c3ccc(Cl)cc3Cl)o2)CC1", "Potency": "inconclusive: 35.5 µM [inhibitor, single point]"}
{"smiles": "CC1=C(C#N)C(c2cccnc2)C2=C(CC(C)(C)CC2=O)N1", "note": "(stereo unspecified)", "Potency": "inconclusive: 31.6 µM [inhibitor, partial curve]"}
{"smiles": "COc1cc(/C=C/C(=O)NCc2nc3ccccc3[nH]2)cc(OC)c1OC", "Potency": "inconclusive: 22.4 µM [inhibitor, partial curve]"}
{"smiles": "Cc1cccc(Nc2nc(-c3c(C)nc4ccccn34)cs2)c1", "Potency": "inconclusive: 31.6 µM [inhibitor, partial curve]"}
{"smiles": "COc1ccc(CC(=O)Nc2cc(NC(=O)Cc3ccc(OC)c(OC)c3)cc(C(=O)O)c2)cc1OC", "Potency": "inconclusive: 31.6 µM [inhibitor, partial curve]"}
